Data: patent US20240052065A1 (Boehringer Ingelheim, published 2024)
Positions count from the first letter of the chain named. Values belong to the binder of their own block, whether it stands above or below them.

Tests used:
Test in all cases: SPR (ProteOn XPR36), bispecific captured on protein A/G, CDH3 as analyte, 1:1 Langmuir fit
[1] = target: T1, recombinant human CDH3 [EC2-EC3] (human, UniProt P22223 216-440, limits assumed)
T1 construct: no separate entry is named for EC3; also called HuCDH3_EC2-EC3; EC2-EC3 peptide

[2] = target: T2, recombinant human CDH3, full-length (human, UniProt P22223 partial chain, limits assumed)
T2 construct: also called HuCDH3 full-length; human full-length CDH3

[3] = target: T3, recombinant human CDH3 [EC1-EC2] (human, UniProt P22223 partial chain, limits assumed)
T3 construct: also called HuCDH3 EC1-EC2

Kd [1]: 29.8 nM | Kd [2]: 2.43 nM | Kd [3]: 2.76 nM
B1: bispecific binding molecule CDH3/TRAILR2v5 (bispecific antibody, human IgG1, kappa)
heavy: QVQLQESGPGLVKPSETLSLTCTVSGGSISSYYWSWFRQPAGKGLEWIGRIYSSGSTNYNPSLKSRVTMSVDTSKNQFSLKLSSVTAADTAVYYCARGMGVTGLFDYWGQGTLVTVSSASTKGPSVFPLAPSSKSTSGGTAALGCLVKDYFPEPVTVSWNSGALTSGVHTFPAVLQSSGLYSLSSVVTVPSSSLGTQTYICNVNHKPSNTKVDKRV[letters of human IgG1 Fc with changes not shown]GGSGGSSSELTQDPAVSVALGQTVRITCQGDSLRSYYASWYQQKPGQAPVLVIYGKNNRPSGIPDRFSGSSSGNTASLTITGAQAEDEADYYCNSRDSSGNHVVFGGGTKLTVLGGGGSGGGGSGGGGSGGGGSEVQLVQSGGGVERPGGSLRLSCAASGFTFDDYGMSWVRQAPGKGLEWVSGINWNGGSTGYADSVKGRVTISRDNAKNSLYLQMNSLRAEDTAVYYCAKILGAGRGWYFDLWGKGTTVTVSS
light: DIVMTQSPDSLAVSLGERATINCKSSQSVLYSSNNKNYLAWYQQKPGQPPKLLIYWASTRESGVPDRFSGSGSGTDFTLTISSLQAEDVAVYYCQQYYSTMYTFGQGTKLEIKRTVAAPSVFIFPPSDEQLKSGTASVVCLLNNFYPREAKVQWKVDNALQSGNSQESVTEQDSKDSTYSLSSTLTLSKADYEKHKVYACEVTHQGLSSPVTKSFNRGEC
notes: also called CDH3/TR2v5

Kd [1]: 1.06 nM | Kd [2]: 5.36 nM | Kd [3]: 1.62 nM
B2: bispecific binding molecule CDH3/TRAILR2v4 (bispecific antibody, human IgG1, kappa)
heavy: QVQLQESGPGLVKPSETLSLTCTVSGGSISGYYWSWIRQPAGKGLEWIGRIYTSGNTIYNPSLKSRVTMSVDTSKNQFSLRLTSVTAADTAVYYCARGNPLATYFGYWGQGTLVTVSSASTKGPSVFPLAPSSKSTSGGTAALGCLVKDYFPEPVTVSWNSGALTSGVHTFPAVLQSSGLYSLSSVVTVPSSSLGTQTYICNVNHKPSNTKVDKRV[letters of human IgG1 Fc with changes not shown]GGSGGSSSELTQDPAVSVALGQTVRITCQGDSLRSYYASWYQQKPGQAPVLVIYGKNNRPSGIPDRFSGSSSGNTASLTITGAQAEDEADYYCNSRDSSGNHVVFGGGTKLTVLGGGGSGGGGSGGGGSGGGGSEVQLVQSGGGVERPGGSLRLSCAASGFTFDDYGMSWVRQAPGKGLEWVSGINWNGGSTGYADSVKGRVTISRDNAKNSLYLQMNSLRAEDTAVYYCAKILGAGRGWYFDLWGKGTTVTVSS
light: B1 light with V3E
notes: also called CDH3/TR2v4

Kd [1]: 35.1 nM | Kd [2]: 3.19 nM | Kd [3]: 2.79 nM
B3: bispecific binding molecule CDH3/TRAILR2v6 (bispecific antibody, human IgG1, kappa)
heavy: QVQLQESGPGLVKPSETLSLTCTVSGGSINNYYWTWIRQPAGKGLEWIGRIYSSGSTNYTPSLKSRVTMSVDTSKNQFSLKLSSVTAADTAVYFCAREGYNDGYGYFDHWGQGTLVTVSSASTKGPSVFPLAPSSKSTSGGTAALGCLVKDYFPEPVTVSWNSGALTSGVHTFPAVLQSSGLYSLSSVVTVPSSSLGTQTYICNVNHKPSNTKVDKRV[letters of human IgG1 Fc with changes not shown]GGSGGSSSELTQDPAVSVALGQTVRITCQGDSLRSYYASWYQQKPGQAPVLVIYGKNNRPSGIPDRFSGSSSGNTASLTITGAQAEDEADYYCNSRDSSGNHVVFGGGTKLTVLGGGGSGGGGSGGGGSGGGGSEVQLVQSGGGVERPGGSLRLSCAASGFTFDDYGMSWVRQAPGKGLEWVSGINWNGGSTGYADSVKGRVTISRDNAKNSLYLQMNSLRAEDTAVYYCAKILGAGRGWYFDLWGKGTTVTVSS
light: B1 light with N34K, M101F, Y102R, L110V
notes: also called CDH3/TR2v6
